Results reported in PMC4336329 (PLoS ONE, 2015).
The campaign covered roughly 310,000 compounds. About 2,200 (0.71%) showed an effect of 50% or more. The effect is printed as a negative number. The list shows a part of the results.

What follows are molecules tested against human ether-à-go-go-related gene (hERG) potassium channel (human, UniProt Q12809) (assay: primary screen, population patch clamp on CHO cells stably expressing hERG).
Sequence of human ether-à-go-go-related gene (hERG) potassium channel (Q12809 whole entry, looked up): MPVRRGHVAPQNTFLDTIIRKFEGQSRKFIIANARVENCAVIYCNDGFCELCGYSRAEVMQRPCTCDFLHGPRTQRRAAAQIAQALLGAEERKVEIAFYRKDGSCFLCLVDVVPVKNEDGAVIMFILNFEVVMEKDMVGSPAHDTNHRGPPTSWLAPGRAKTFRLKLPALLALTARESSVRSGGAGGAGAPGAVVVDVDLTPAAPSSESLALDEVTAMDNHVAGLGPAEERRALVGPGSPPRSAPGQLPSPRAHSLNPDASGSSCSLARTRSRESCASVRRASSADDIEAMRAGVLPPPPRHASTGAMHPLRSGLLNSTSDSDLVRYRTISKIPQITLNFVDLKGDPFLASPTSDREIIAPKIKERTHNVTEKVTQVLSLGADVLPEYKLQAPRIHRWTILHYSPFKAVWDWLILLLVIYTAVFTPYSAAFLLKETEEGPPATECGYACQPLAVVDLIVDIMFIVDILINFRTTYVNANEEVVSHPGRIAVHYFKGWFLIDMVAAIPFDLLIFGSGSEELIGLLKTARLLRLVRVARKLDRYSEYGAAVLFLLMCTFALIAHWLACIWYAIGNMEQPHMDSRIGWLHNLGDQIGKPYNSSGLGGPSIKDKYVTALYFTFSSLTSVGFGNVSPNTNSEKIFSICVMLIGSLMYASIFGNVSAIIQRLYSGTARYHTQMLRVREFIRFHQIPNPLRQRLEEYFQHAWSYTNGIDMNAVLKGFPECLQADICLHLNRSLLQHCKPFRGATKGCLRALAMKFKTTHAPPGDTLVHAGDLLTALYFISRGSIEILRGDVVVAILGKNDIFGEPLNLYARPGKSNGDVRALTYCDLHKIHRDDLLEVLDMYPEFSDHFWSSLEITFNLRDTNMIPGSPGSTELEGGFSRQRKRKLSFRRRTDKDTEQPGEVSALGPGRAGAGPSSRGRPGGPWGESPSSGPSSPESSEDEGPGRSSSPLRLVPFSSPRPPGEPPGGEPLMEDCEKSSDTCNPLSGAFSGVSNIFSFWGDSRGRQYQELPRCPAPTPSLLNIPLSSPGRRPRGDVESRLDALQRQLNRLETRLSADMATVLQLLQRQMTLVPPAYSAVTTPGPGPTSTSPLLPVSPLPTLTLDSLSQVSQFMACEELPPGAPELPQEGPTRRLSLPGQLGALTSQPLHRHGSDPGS
For `Cn1c(-[n+]2c(-c3ccccc3)cc(-c3ccccc3)cc2-c2ccccc2)nc2cc([N+](=O)[O-])ccc21.[I-]`, the “hERG current change (%, negative = inhibition) at 1uM” value was 6.84%. In the case of `COc1ccc(NC(=O)c2cc3ccccc3o2)cn1`, the “hERG current change (%, negative = inhibition) at 1uM” value is reported as 16.1%. For `NC(=O)c1ccccc1OCC(=O)N1CCC(Cc2ccccc2)CC1`, the “hERG current change (%, negative = inhibition) at 1uM” value was -1.79%. `COc1ccc(-c2nn(CCC#N)cc2C(=O)Nc2ccccn2)cc1OC` was tested, and the “hERG current change (%, negative = inhibition) at 1uM” value was 16.3%. For `COc1ccccc1C(=O)Nc1nnc(S(=O)(=O)N2CCN(c3ccc(F)cc3)CC2)s1`, the “hERG current change (%, negative = inhibition) at 1uM” value was 16%. In the case of `CC1=CC2=NC(=O)/C(=C\c3cc(C)n(-c4ccccc4)c3C)C(=N)N2O1`, the “hERG current change (%, negative = inhibition) at 1uM” value is reported as 11.9%. With `CC1CCN(CCCNC(=O)CCc2nnc3n(CCc4ccccc4)c(=O)c4ccccc4n23)CC1` the “hERG current change (%, negative = inhibition) at 1uM” value was -52.4%. With `O=C(NCCc1ccccc1)C1CCN(C(=O)c2ccc(F)cc2)CC1` the “hERG current change (%, negative = inhibition) at 1uM” value was 13.3%. With `CC(=O)Nc1ccc(S(=O)(=O)N2CCOCC2)cc1` the “hERG current change (%, negative = inhibition) at 1uM” value was -0.964%. For `CCN(CC)CCNC(=O)c1cc([N+](=O)[O-])c(N(C)C)cc1OC.Cl`, the “hERG current change (%, negative = inhibition) at 1uM” value was 5.46%. With `CSc1nc(-c2ccccc2)nc(SC)c1C(C)=O` the “hERG current change (%, negative = inhibition) at 1uM” value was 18%. For `O=C(c1ccccc1)N1CCC2(CC1)OCCO2`, the “hERG current change (%, negative = inhibition) at 1uM” value was 8.32%. In the case of `COc1ccccc1/C(C)=N/NC(=S)NCc1ccccc1`, the “hERG current change (%, negative = inhibition) at 1uM” value is reported as 0.32%. For `COC(=O)c1ccc(/C=N/NC(=O)C2CC(=O)N(c3ccc(OC)cc3)C2)cc1` (stereo not shown), the “hERG current change (%, negative = inhibition) at 1uM” value was -10.3%. With `CC(NS(=O)(=O)c1ccc(NC(=O)N2CCCCC2)cc1)c1ccccc1` (stereo not shown) the “hERG current change (%, negative = inhibition) at 1uM” value was 4.77%. With `COc1cc2c(cc1OC)CN(C(=O)c1cc(S(=O)(=O)N3CCCCC3)ccc1Cl)CC2` the “hERG current change (%, negative = inhibition) at 1uM” value was 8.25%. With `C=C[C@@H](C)N(Cc1ccc(OC)cc1)S(=O)(=O)N(Cc1ccccc1)[C@H](C=C)C(C)C` the “hERG current change (%, negative = inhibition) at 1uM” value was 9.23%. For `CC(C)c1ccc(NC2CCCN(C(=O)CN3C(=O)CSC3=O)C2)cc1` (stereo not shown), the “hERG current change (%, negative = inhibition) at 1uM” value was 32.2%. For `Cn1c(N)c(C(=O)COC(=O)c2cc(-c3ccccc3)nc3ccccc23)c(=O)n(C)c1=O`, the “hERG current change (%, negative = inhibition) at 1uM” value was 9.8%. In the case of `CCCc1cc(=O)oc2c(CN3CCCC3)c(O)c(Cl)cc12`, the “hERG current change (%, negative = inhibition) at 1uM” value is reported as -14.7%. With `CC1CCCN(C(=S)Nc2ccc(F)cc2)C1` (stereo not shown) the “hERG current change (%, negative = inhibition) at 1uM” value was 12.2%. In the case of `N#CCSc1nc2cc(C(=O)N3CCCC3)ccc2c(=O)n1Cc1ccccc1`, the “hERG current change (%, negative = inhibition) at 1uM” value is reported as 14.7%. `COC(=O)c1ccc(C2/C(=C(/O)c3ccc(OC)cc3)C(=O)C(=O)N2Cc2ccco2)cc1` (stereo not shown) was tested, and the “hERG current change (%, negative = inhibition) at 1uM” value was 12.4%. With `Cc1nc2sc3c(c2c(=O)o1)CC(C)(C)OC3` the “hERG current change (%, negative = inhibition) at 1uM” value was 14.1%. `O=C(NCc1ccco1)C1CC(c2cc(C(F)(F)F)cc(C(F)(F)F)c2)=NO1` (stereo not shown) was tested, and the “hERG current change (%, negative = inhibition) at 1uM” value was 11.4%. With `CC(C)NC[C@H](O)COc1cccc2[nH]ccc12` the “hERG current change (%, negative = inhibition) at 1uM” value was 7.69%. For `CC(C)Oc1ccc(CCC(=O)NNC(=O)c2ccccc2C(=O)O)cc1`, the “hERG current change (%, negative = inhibition) at 1uM” value was 20.5%. In the case of `Cc1ccc(C)c(N(CC(=O)NCc2ccco2)C(=O)CNS(=O)(=O)c2ccc(F)cc2)c1`, the “hERG current change (%, negative = inhibition) at 1uM” value is reported as 5.39%. In the case of `Cc1cccc(C(=O)NCC(=O)N2CCN(S(=O)(=O)c3ccccc3)CC2)c1`, the “hERG current change (%, negative = inhibition) at 1uM” value is reported as 7.61%. For `CC(C)[C@H](NC(=O)c1ccco1)C(=O)OCC(=O)N1CCc2ccccc21`, the “hERG current change (%, negative = inhibition) at 1uM” value was 2.01%. `O=C(O)c1ccc(CS(=O)(=O)c2c(Cl)cccc2Cl)o1` was tested, and the “hERG current change (%, negative = inhibition) at 1uM” value was 15.4%. In the case of `Cn1c(=O)n(C)c2cc([N+](=O)[O-])c(N3CCN(CCO)CC3)cc21`, the “hERG current change (%, negative = inhibition) at 1uM” value is reported as 9.04%. In the case of `CC(=O)NCCc1nc2ccccc2n1Cc1ccccc1`, the “hERG current change (%, negative = inhibition) at 1uM” value is reported as 9.65%. `CCOc1ccc(S(=O)(=O)N(CC(N)=O)c2ccc(C)cc2)cc1` was tested, and the “hERG current change (%, negative = inhibition) at 1uM” value was 4.63%. `CS(=O)(=O)c1ccc(C(=O)OCC(=O)NC2CCS(=O)(=O)C2)cc1[N+](=O)[O-]` (stereo not shown) was tested, and the “hERG current change (%, negative = inhibition) at 1uM” value was 7.69%. `CCSc1nnc(NC(=O)c2ccccc2)s1` was tested, and the “hERG current change (%, negative = inhibition) at 1uM” value was -0.488%. In the case of `Cc1ccc(NC(=S)Nc2ccc3cn[nH]c3c2)c(C)c1`, the “hERG current change (%, negative = inhibition) at 1uM” value is reported as -9.39%. In the case of `Cn1c(=O)c2c(nc(CN3CCN(c4ccccc4)CC3)n2CCN2CCOCC2)n(C)c1=O`, the “hERG current change (%, negative = inhibition) at 1uM” value is reported as -11.1%. With `O=C(NCc1cccc(Br)c1)C1CC(c2ccc(C(F)(F)F)cc2)=NO1` (stereo not shown) the “hERG current change (%, negative = inhibition) at 1uM” value was 8.65%. With `CC(C)NC(=O)c1cc(-c2cccs2)on1` the “hERG current change (%, negative = inhibition) at 1uM” value was 3.47%. `CCOc1cc(S(=O)(=O)NCc2ccc(OC)cc2)c(OCC)cc1-n1cnnn1` was tested, and the “hERG current change (%, negative = inhibition) at 1uM” value was 2.34%. With `COc1ccc(OC)c(/C=N/N(CCC#N)C2=NS(=O)(=O)c3ccccc32)c1` the “hERG current change (%, negative = inhibition) at 1uM” value was 9.43%. In the case of `CC1CC1C(=O)OCC(=O)NNC(=O)c1ccc([N+](=O)[O-])cc1` (stereo not shown), the “hERG current change (%, negative = inhibition) at 1uM” value is reported as 13.6%. In the case of `N#Cc1cc2ccccc2nc1SCc1ccccn1`, the “hERG current change (%, negative = inhibition) at 1uM” value is reported as 3.8%. `COc1cc(OC)cc(C(=O)Nc2ccc(S(=O)(=O)N3CCOCC3)cc2)c1` was tested, and the “hERG current change (%, negative = inhibition) at 1uM” value was 12.7%. For `CCCn1nc(C(=O)Nc2cccc(C(=O)OC)c2)c2ccccc2c1=O`, the “hERG current change (%, negative = inhibition) at 1uM” value was 14.5%. `Cc1ccc(C(=O)NN2C(=O)/C(=C/c3cn(C)c4ccccc34)SC2=S)cc1` was tested, and the “hERG current change (%, negative = inhibition) at 1uM” value was 10.4%. With `Cc1ccc(OCC(=O)Oc2c(C)cccc2C)cc1` the “hERG current change (%, negative = inhibition) at 1uM” value was 12.3%. For `COc1ccc(-c2ccc3ccccc3n2)cc1OC`, the “hERG current change (%, negative = inhibition) at 1uM” value was 9.24%. For `COC(=O)COc1ccc(S(=O)(=O)N2CCc3ccccc3C2)cc1C`, the “hERG current change (%, negative = inhibition) at 1uM” value was 10.9%. With `Cl.Clc1ccc(-c2ccc(CNCC3CCCO3)o2)cc1` (stereo not shown) the “hERG current change (%, negative = inhibition) at 1uM” value was 4.36%. `CSc1cccc(CN2CCC(n3nccc3NC(=O)C3CC3)CC2)c1` was tested, and the “hERG current change (%, negative = inhibition) at 1uM” value was -18.7%. With `CCCCCCn1c(N2CCN(c3cccc(Cl)c3)CC2)nc2c1c(=O)[nH]c(=O)n2C` the “hERG current change (%, negative = inhibition) at 1uM” value was 11.6%. In the case of `COc1cccc(-c2c(C(=O)N/N=C/c3ccc(C)s3)nnn2-c2nonc2N)c1`, the “hERG current change (%, negative = inhibition) at 1uM” value is reported as 3.27%. In the case of `CN(CC(=O)N1CCN(c2ccccc2F)CC1)S(=O)(=O)c1cnc[nH]1`, the “hERG current change (%, negative = inhibition) at 1uM” value is reported as 5.05%.
